Like-named read-outs stand apart in the source and are kept apart here.
What was measured:
[1] = target: T1, IL-7 receptor (IL-7R alpha chain and common gamma chain) on human T cells (human, UniProt P16871 21-459; P31785 23-369); assay: cell-based or functional assay
T1 sequence (looked up) 1: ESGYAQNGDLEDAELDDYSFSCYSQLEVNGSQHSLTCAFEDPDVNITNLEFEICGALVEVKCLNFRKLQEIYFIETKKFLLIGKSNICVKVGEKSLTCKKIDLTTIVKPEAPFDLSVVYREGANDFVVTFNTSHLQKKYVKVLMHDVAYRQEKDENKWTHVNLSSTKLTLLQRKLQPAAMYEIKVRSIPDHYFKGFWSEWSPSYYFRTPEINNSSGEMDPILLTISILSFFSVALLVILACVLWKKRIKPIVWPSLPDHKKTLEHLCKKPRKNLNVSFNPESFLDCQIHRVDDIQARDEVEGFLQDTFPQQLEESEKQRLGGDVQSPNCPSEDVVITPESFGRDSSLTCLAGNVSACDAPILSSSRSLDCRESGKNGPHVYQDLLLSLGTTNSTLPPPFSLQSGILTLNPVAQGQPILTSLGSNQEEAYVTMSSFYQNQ
T1 sequence (looked up) 2: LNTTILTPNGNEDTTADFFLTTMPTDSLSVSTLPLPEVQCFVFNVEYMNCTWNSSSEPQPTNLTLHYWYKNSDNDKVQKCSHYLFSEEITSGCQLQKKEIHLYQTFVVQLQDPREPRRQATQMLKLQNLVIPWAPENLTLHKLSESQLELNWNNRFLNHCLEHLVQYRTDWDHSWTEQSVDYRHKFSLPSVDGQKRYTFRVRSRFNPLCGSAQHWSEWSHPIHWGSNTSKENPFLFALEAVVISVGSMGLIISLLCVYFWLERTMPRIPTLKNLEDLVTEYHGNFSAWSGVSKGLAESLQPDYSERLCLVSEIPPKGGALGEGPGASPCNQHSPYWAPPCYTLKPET

[2] = target: T1, IL-7 receptor (IL-7R alpha chain and …); assay: flow cytometry, fresh PBMCs, naive (TCF-1+ PD-1-) CD4 T cells
[3] = target: T1, IL-7 receptor (IL-7R alpha chain and …); assay: flow cytometry, fresh PBMCs, naive (TCF-1+ PD-1-) CD8 T cells; parameters: unit not given beside the values
[4] = target: T1, IL-7 receptor (IL-7R alpha chain and …); assay: cell-based or functional assay; remark: listed apart in the source
[5] = target: T2, human PD-1 on activated CD4 T cells (human, UniProt Q15116 25-288); assay: cell-based or functional assay
[6] = target: T1, IL-7 receptor (IL-7R alpha chain and …); assay: cell-based or functional assay; remark: listed apart in the source
[7] = target: T1, IL-7 receptor (IL-7R alpha chain and …); assay: flow cytometry, fresh PBMCs, bystander (PD-1- TCF-1-) CD8 T cells; parameters: unit not given beside the values
[8] = target: T1, IL-7 receptor (IL-7R alpha chain and …); assay: as above
[9] = target: T1, IL-7 receptor (IL-7R alpha chain and …); assay: cell-based or functional assay; remark: listed apart in the source
[10] = target: T2, human PD-1 on activated CD4 T cells; assay: cell-based or functional assay; remark: listed apart in the source
[11] = target: T3, human huPD1-ECD_Fc (P1AD9704) (human, UniProt Q15116 in part); assay: SPR Biacore T200, sample captured by anti-PGLALA, huPD1-ECD-Fc injected; sample 2 w/pH 6.0, -80°C (reference)
T3 construct: extracellular domain; In-house reagent; not shown: Fc part

[12] = target: T1, IL-7 receptor (IL-7R alpha chain and …); assay: flow cytometry, fresh PBMCs, naive (TCF-1+ PD-1-) CD4 T cells; parameters: unit not given beside the values
[13] = target: T1, IL-7 receptor (IL-7R alpha chain and …); assay: flow cytometry, fresh PBMCs, bystander (PD-1- TCF-1-) CD4 T cells; parameters: unit not given beside the values
[14] = target: T1, IL-7 receptor (IL-7R alpha chain and …); assay: flow cytometry, fresh PBMCs, naive (TCF-1+ PD-1-) CD8 T cells

B1: P1AI5587 (PD1-IL7v2.6, fully glycosylated; de-risked PD1 binder FV020519; IL7 E13K, G85E; (G2SG2)3 linker) (other)
light: DIVMTQSPDSLAVSLGERATINCKASESVDTSDNSFIHWYQQKPGQSPKLLIYRASTLESGVPDRFSGSGSGTDFTLTISSLQAEDVAVYYCQQNYDVPWTFGQGTKVEIKRTVAAPSVFIFPPSDEQLKSGTASVVCLLNNFYPREAKVQWKVDNALQSGNSQESVTEQDSKDSTYSLSSTLTLSKADYEKHKVYACEVTHQGLSSPVTKSFNRGEC
heavy 1: EVQLLESGGGLVQPGGSLRLSCAASGFSFSSYTMSWVRQAPGKGLEWVSAISGGGRDIYYPDSVKGRFTISRDNSKNTLYLQMNSLRAEDTAVYYCVLLTGRVYFALDSWGQGTLVTVSSASTKGPSVFPLAPSSKSTSGGTAALGCLVKDYFPEPVTVSWNSGALTSGVHTFPAVLQSSGLYSLSSVVTVPSSSLGTQTYICNVNHKPSNTKVDKKVEPKSCDKTHTCPPCPAPEAAGGPSVFLFPPKPKDTLMISRTPEVTCVVVDVSHEDPEVKFNWYVDGVEVHNAKTKPREEQYNSTYRVVSVLTVLHQDWLNGKEYKCKVSNKALGAPIEKTISKAKGQPREPQVCTLPPSRDELTKNQVSLSCAVKGFYPSDIAVEWESNGQPENNYKTTPPVLDSDGSFFLVSKLTVDKSRWQQGNVFSCSVMHEALHNHYTQKSLSLSPG
heavy 2: EVQLLESGGGLVQPGGSLRLSCAASGFSFSSYTMSWVRQAPGKGLEWVSAISGGGRDIYYPDSVKGRFTISRDNSKNTLYLQMNSLRAEDTAVYYCVLLTGRVYFALDSWGQGTLVTVSSASTKGPSVFPLAPSSKSTSGGTAALGCLVKDYFPEPVTVSWNSGALTSGVHTFPAVLQSSGLYSLSSVVTVPSSSLGTQTYICNVNHKPSNTKVDKKV[sequence of human IgG1 Fc with changes omitted]GGSGGGGSGGGGSGGDCDIEGKDGKQYKSVLMVSIDQLLDSMKEIGSNCLNNEFNFFKRHICDANKEGMFLFRAARKLRQFLKMNSTGDFDLHLLKVSEETTILLNCTGQVKGRKPAALGEAQPTKSLEENKSLKEQKKLNDLCFLKRLLQEIKTCWNKILMGTKEH
notes: Immunoconjugate: anti-PD-1 IgG1 (FV020519), knob-into-hole, PGLALA; IL-7 variant fused to the C-terminus of the knob heavy chain; Several batches of the same construct were tested; the batch is named in the rows; also called P1AI5587-007 (transient); P1AI5587-270 (transient)
[1]
  EC50[active]/EC50 [active PD1-IL7wt] (batch P1AI5587-468): 8.3 fold
  EC50[fresh]/EC50 [fresh PD1-IL7wt] (batch P1AI5587-468): 682 fold
[2]
  fold reduction in binding compared to P1AF7303: 48.1 fold
[3]
  AUC of dose-response binding (frequency of anti-PGLALA+ cells): 10
[4]
  Potency reduction to PD1-IL7wt: EC50 (PD1+)/EC50 (PD1-IL7wt) (batch P1AI5587-007): 2.6 fold
[5]
  Cis-delivery: fold increase in EC50, EC50 [with PD1bl]/EC50 [no PD1bl] (batch P1AI5587-007): 59.6 fold
[6]
  fold decrease in STAT-5P potency on PD-1- T cells relative to P1AH4515: 66 fold
  fold decrease in STAT-5P potency on PD-1- T cells relative to P1AH4515 (P1AI5587 from stable transfection): 250 fold
[7]
  AUC of dose-response binding (frequency of anti-PGLALA+ cells): 37.9
[8]
  fold reduction in binding compared to P1AF7303: 6.53 fold
[9]
  Potency reduction to PD1-IL7wt: EC50 (PD1+)/EC50 (PD1-IL7wt) (batch P1AI5587-007): 5.8 fold
[10]
  Cis-delivery: fold increase in EC50, EC50 [with PD1bl]/EC50 [no PD1bl] (batch P1AI5587-007): 19.5 fold
[11]
  Relative Active Concentration (RAC), binding relative to the non-stressed sample: 100%
[12]
  AUC of dose-response binding (frequency of anti-PGLALA+ cells): 8
[13]
  AUC of dose-response binding (frequency of anti-PGLALA+ cells): 9.8
[14]
  fold reduction in binding compared to P1AF7303: 39.6 fold
